Measurements from PubChem BioAssay AID2675 (National Center for Advancing Translational Sciences (NCATS), 2010).
Screen size: about 280,000 compounds; about 100 (0.036%) were called active. This list was built around the results that the source calls inconclusive (neither active nor inactive); the mix of calls is not that of the screen. Calls follow the shape of the dose curve; as a rule, active = well fitted inhibition curve with a large enough effect in the signal ratio, with a control signal flat (not every such curve was filed as active); inconclusive = small, poorly fitted or top-dose-only effect, or effect the other way, or a change in a side signal; inactive = no such curve, though single readings can be large or run the other way; the % refers to the signal ratio. Where the call is inconclusive, the potency comes from a doubtful curve fit. A note “side channel” means that the fit belongs to a control or component signal, not to the main read-out.

Molecular target: Muscleblind-like protein 1 (Homo sapiens) (UniProt Q9NR56)
Sequence of UniProt Q9NR56 (Q9NR56 whole entry, looked up): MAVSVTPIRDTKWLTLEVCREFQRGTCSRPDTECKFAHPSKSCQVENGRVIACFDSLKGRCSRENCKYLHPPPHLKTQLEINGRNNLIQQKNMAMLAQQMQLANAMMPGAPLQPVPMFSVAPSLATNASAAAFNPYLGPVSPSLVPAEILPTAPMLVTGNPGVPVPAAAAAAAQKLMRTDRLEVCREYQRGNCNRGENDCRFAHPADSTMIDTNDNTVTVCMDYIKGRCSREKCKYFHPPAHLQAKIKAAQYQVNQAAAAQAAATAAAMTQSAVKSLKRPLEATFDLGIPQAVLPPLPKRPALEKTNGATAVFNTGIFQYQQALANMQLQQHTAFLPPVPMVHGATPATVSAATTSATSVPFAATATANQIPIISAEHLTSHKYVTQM
Test: qHTS Assay for Inhibitors of MBNL1-poly(CUG) RNA binding
Conditions: TR-FRET MBNL1-His/biotin-(CUG)12 binding, 665/545 ratio; activity change, negative = inhibition: at 57.5 µM (top of the series)
Procedure, shortened: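 Compounds (final 92 nM to 58 uM) are added to His-tagged MBNL1 and biotin-(CUG)12, then terbium anti-His antibody and streptavidin-XL665 (5 nM final). After 60 min at room temperature, the 665/545 nm ratio is read.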
% is scaled to controls: 0 for no effect and ±100 for the full control effect; potency is read from the fitted curve at half-maximal effect; tags tell the direction and shape of the fitted curve or compound fluorescence and quenching.

| Compound | Potency | activity change, negative = inhibition |
| --- | --- | --- |
| COc1ccc(-n2ccn(CC(=O)Nc3ccccc3OC)c(=O)c2=O)cc1 | inconclusive: 14.1 µM [quencher, side channel, partial curve] |  |
| O=C(Nc1ccc2oc(-c3cccnc3)nc2c1)c1ccc([N+](=O)[O-])o1 | inconclusive: 2.82 µM [quencher, full curve] |  |
| Cc1cccc(CS(=O)(=O)c2nnc([C@H](Cc3ccccc3)NC(=O)OC(C)(C)C)o2)c1 | inactive |  |
| COc1cc(/C=C/C(=O)CC(=O)/C=C/c2ccc(O)c(OC)c2)ccc1O | inconclusive: 39.8 µM [quencher, single point] |  |
| COc1cc(/C=C2\SC(N)=NC2=O)ccc1O | inconclusive: 14.1 µM [quencher, side channel, partial curve] |  |
| Cc1ccc(NC(=O)O/N=C2\CCCCC2c2ccc([N+](=O)[O-])cc2[N+](=O)[O-])cc1 (configuration not stated) | inconclusive: 10 µM [quencher, single point] |  |
| Cc1cc(N2C(=O)c3ccc(C(=O)NCc4ccccc4)cc3C2=O)no1 | inconclusive: 20 µM [quencher, side channel, partial curve] |  |
| O=C(Nc1cccnc1)Nc1cccc(F)c1 | inconclusive: 200 µM [inhibitor, partial curve] |  |
| C=CCOC(=O)c1[nH]c2c(c1C)C(=O)CC(c1ccco1)C2 (configuration not stated) | inconclusive: 3.16 µM [quencher, side channel, full curve] |  |
| CN(C(=O)c1cc([N+](=O)[O-])ccc1NCc1cccnc1)c1ccccc1 | inconclusive: 14.1 µM [quencher, side channel, partial curve] |  |
| CCNc1ccc(Br)cc(C(=O)/C=C/c2ccc(Cl)cc2)c1=O |  | inactive: -0.78% [at 11.5 µM] |
| Cc1csc(SCC(=O)Nc2cccc3nsnc23)n1 | inconclusive: 7.94 µM [quencher, side channel, full curve] |  |
| CC(C)N(Cc1ccccc1)C(=O)CN1C(=O)c2ccccc2C1=O | inconclusive: 20 µM [quencher, side channel, partial curve] |  |
| C/C(=N\NC(=O)CCCNc1ccccc1)c1ccncc1 | inactive |  |
| CC(=O)c1cccc(NC(=O)CCNS(=O)(=O)c2cccc3nonc23)c1 | inconclusive: 7.94 µM [quencher, side channel, partial curve] |  |
| Cc1ccc(S(=O)(=O)CC2CSc3nc4ccccc4n32)cc1 (configuration not stated) | inactive |  |
| O=C(COC(=O)c1cc([N+](=O)[O-])ccc1N1CCOCC1)Nc1ccc(Cl)cc1 | inconclusive: 28.2 µM [quencher, side channel, partial curve] |  |
